Measurements as given in US20240252428A1, “METHODS OF PROVIDING BIRTH CONTROL” (THE POPULATION COUNCIL, INC., priority 2021, published 2024).

Experiments:
[1] = tested on: CYP enzymes; experiment: In vitro CYP inhibition/induction studies; type: in vitro ADME; settings: at the therapeutic dose
[2] = Regression model of quarterly use; design: species or system human; settings: SA predicted, 84-day product-use periods, 7-day removal
From the text: The regression model described in Example 12 was used to predict AUC and Cavg values for SA and EE after four quarterly periods of extended use of the vaginal system disclosed herein. […] Cavg is the SA concentration in serum during the product-use period while the AUCF-L is the area under the curve for the period beginning on the first day (“F”) and ending on the last day (“L”) of the product-use cycle.
Cavg is the SA concentration in serum during the product-use period while the AUCF-L is the area under the curve for the period beginning on the first day and ending on the last day of the product-use cycle.
Cavg is the average concentration in serum during the product-use period while the AUCF-L is the area under the curve for the period beginning on the first day and ending on the last day of the product-use cycle.
Cavg is the average EE concentration in serum during the product-use period while the AUCF-L is the area under the curve for the period beginning on the first day and ending on the last day of the product-use cycle.

[3] = Regression model of 364-day continuous vaginal ring use; design: species or system human; settings: linear regression model
Procedure: Continuous use models for the vaginal ring system were post hoc analyses based on PK data obtained from a phase 1 PK sub-study.
A regression model was constructed post hoc to describe the relationship between serum SA concentration and the number of days of vaginal ring use and to extrapolate the expected SA concentration after one year of continuous use. Serum SA data points taken in the first 72 hours following vaginal ring insertion and from days 1-3 from each cycle were not included, as the initial burst of steroid release from insertion/reinsertion would not be predictive of serum SA levels with continuous use. Serum SA levels measured after vaginal ring removal were also excluded. Data from subjects who were not adherent during vaginal ring use were also excluded. Adherence was evaluated in the primary PK sub-study, which was based on diary recordings and observed progesterone/estradiol levels. Serum measurements were log transformed for regression modeling. Serum SA measurements were from cycles 1, 3 and 13. The day of use (if continuous) was calculated as (cycle −1)*21+cycle-day of use (21/7). The last measurement was from cycle 13, day 15, corresponding to the 267th day of use. Using the model's parameters, serum SA levels after 364 days of hypothetical use and the 95% confidence interval (95% CI) around the predicted values were predicted as well as the mean. […] A similar modeling approach was used for EE.
Linear mixed models adjusting for the repeated measurements from each subject during the study were constructed. Linear regression models without a repeated measure adjustment were also constructed for comparison and simplicity. The models were fitted using SAS version 9.4 (SAS Institute, Cary, NC).

[4] = target: cytochrome P450 (CYP) 3A4 isoenzyme (Homo sapiens, UniProt P08684); type: in vitro ADME
From the text: The hydroxylated EE metabolites have weak estrogenic activity.

[5] = tested on: ovulation; settings: in vivo; cited from earlier work
[6] = target: serum albumin (Homo sapiens, UniProt P02768); experiment: Binding to serum albumin
[7] = Half-life; type: in vivo; settings: human, serum, other: vaginal; read-out: mean (SD) half-life (converted)

UniProt P08684, sequence (P08684 whole entry): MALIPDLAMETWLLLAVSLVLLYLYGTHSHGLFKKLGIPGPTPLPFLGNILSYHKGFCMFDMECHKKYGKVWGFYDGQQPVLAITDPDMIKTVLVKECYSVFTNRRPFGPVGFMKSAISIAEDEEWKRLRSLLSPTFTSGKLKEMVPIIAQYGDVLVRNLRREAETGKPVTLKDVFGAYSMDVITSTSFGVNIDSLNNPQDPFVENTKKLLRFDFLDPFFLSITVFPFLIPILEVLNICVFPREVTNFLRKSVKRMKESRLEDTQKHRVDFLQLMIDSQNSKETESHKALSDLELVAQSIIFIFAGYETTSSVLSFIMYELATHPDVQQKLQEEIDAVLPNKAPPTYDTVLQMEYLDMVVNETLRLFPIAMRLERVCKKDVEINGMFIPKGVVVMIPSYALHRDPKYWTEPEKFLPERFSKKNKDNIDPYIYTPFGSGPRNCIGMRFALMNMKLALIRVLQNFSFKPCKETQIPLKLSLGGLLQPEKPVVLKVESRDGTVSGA

SMILES | inhibition or induction of CYP enzymes [1] | AUCF-L(pmol*h/L) (95% CI) ([2]; quarterly period 3) | Cavg (pmol/L) (95% CI) ([2]; quarterly period 3) | Cavg (pmol/L) (95% CI) ([2]; quarterly period 4) | 95% CI for the predicted mean serum SA level, day 364 [3] | predicted mean serum SA level after 364 days of continuous vaginal ring use ([3]; value in brackets) | metabolizing enzyme [4] | serum SA level previously shown to suppress ovulation [5] | 95% CI for the predicted mean serum EE level, day 364 [3] | predicted mean serum EE level after 364 days of continuous vaginal ring use [3] | predicted mean serum EE level after 364 days of continuous vaginal ring use ([3]; value in brackets) | bound to serum albumin [6] | half-life [7]
C=C1C[C@H]2[C@@H]3CCC4=CC(=O)CC[C@@H]4[C@H]3CC[C@]2(C)[C@@]1(OC(C)=O)C(C)=O [SA, 16-methylene-17α-acetoxy-19-nor-pregn-4-ene-3,20-dione] | unlikely to inhibit or induce CYP enzymes | 527,507 (506,390- pmol*h/L | 261 (258- pmol/L | 217 (214- pmol/L | 171 to 198 pmol/L | 68 pg/mL | metabolized by the cytochrome P450 (CYP) 3A4 isoenzyme | above 100 pmol/L |  |  |  |  | 
C#C[C@]1(O)CC[C@H]2[C@@H]3CCc4cc(O)ccc4[C@H]3CC[C@@]21C [EE, 19-nor-17α-pregna-1,3,5(10)-trien-20-yne-3,17-diol] |  |  |  |  |  |  | metabolized by the cytochrome P450 (CYP) 3A4 isoenzyme |  | 39 to 48 pmol/L | 43 pmol/L | 12.7 pg/mL | 98.5% | 906 min
